According to patent US20240409660A1 (ALPINE IMMUNE SCIENCES, published 2024):
Values belong to the binder of their own block, whether it stands above or below them.

Molecular target: human CTLA-4 (human, UniProt P16410 36-223)
Experiment: flow cytometry, transfected cells

UniProt P16410, sequence (P16410 36-223): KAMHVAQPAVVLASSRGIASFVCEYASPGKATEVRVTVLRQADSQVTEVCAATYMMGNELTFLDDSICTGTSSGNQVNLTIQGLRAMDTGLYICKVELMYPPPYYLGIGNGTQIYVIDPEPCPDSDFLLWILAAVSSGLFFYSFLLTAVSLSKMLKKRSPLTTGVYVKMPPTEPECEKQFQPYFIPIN

- WT parental MFI ratio: 1 ratio
B1: stacked IgV-Fc: Domain 1 CD80 WT / Domain 2 ICOSL WT (Fc fusion)
chain: VIHVTKEVKEVATLSCGHNVSVEELAQTRIYWQKEKKMVLTMMSGDMNIWPEYKNRTIFDITNNLSIVILALRPSDEGTYECVVLKYEKDAFKREHLAEVTLSVKADFPTPSISDFEIPGGGGSGGGGSGGGGSDTQEKEVRAMVGSDVELSCACPEGSRFDLNDVYVYWQTSESKTVVTYHIPQNSSLENVDSRYRNRALMSPAGMLRGDFSLRLFNVTPQDEQKFHCLVLSQSLGFQEVLSVEVTLHVAANFSVGGGGSGGGGSAAA[no letters for human IgG1 Fc with C220S R292C N297G V302C (EU numbers)]

- WT parental MFI ratio: 1 ratio
B2: stacked IgV-Fc: Domain 1 ICOSL WT / Domain 2 CD80 WT (Fc fusion)
chain: DTQEKEVRAMVGSDVELSCACPEGSRFDLNDVYVYWQTSESKTVVTYHIPQNSSLENVDSRYRNRALMSPAGMLRGDFSLRLFNVTPQDEQKFHCLVLSQSLGFQEVLSVEVTLHVAANFSVGGGGSGGGGSGGGGSVIHVTKEVKEVATLSCGHNVSVEELAQTRIYWQKEKKMVLTMMSGDMNIWPEYKNRTIFDITNNLSIVILALRPSDEGTYECVVLKYEKDAFKREHLAEVTLSVKADFPTPSISDFEIPGGGGSGGGGSAAA[no letters for human IgG1 Fc with C220S R292C N297G V302C (EU numbers)]
